This note sets out measurements from patent US11366114B2, “Genetically encoded fluorescent sensors for detecting ligand bias and intracellular signaling through cAMP pathways” (MONTANA MOLECULAR LLC, priority 2013, dated 2022).

This test concerns cAMP. Kind of test: Fluorescence response of cAMP sensors to isoproterenol in HEK 293 cells co-expressing the beta adrenergic receptor. To be noted: in response to isoproternol. The format is cell-based, human. The essentials:
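Green cAMP-sensor fluorescence was measured at 25 °C in DPBS, by microscopy or plate reader (488/20 nm excitation, 530/20 nm emission), upon addition of isoproterenol, forskolin, IBMX or DMSO. Cells were HEK 293 or 293T transiently expressing sensor plus beta adrenergic receptor for 24-48 h.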

B1: Library 2-2 A5: cAMP sensor; SEQID 20 in Table 1, SEQ ID NO: 21 in Table 3 (protein)
chain: MVAAHAAHSSSSAEWIACLDKRPLERSSEDVDIIFTRLKEVKAFEKFHPNLLHQICLCGYYENLEKGITLFRQGDIGTNWYAVLAGSLDVKVSETSSHQDAVTICTLGIGTAFGESILDNTPRHATIVTRESSELLRIEQKDFKALWEKYRQYMAGLLAPPYGVMETGSNNDRIPDKENTPLIEPHVPLRPANTITKVPSEKILRAGKILRNAILSRAPHMIRDRKYHLKTYRQCCVGTELVDWMMQQTPCVHSRTQAVGMWQVLLEDGVLNHVDQEHHFQDKYLFYRFLDDEHEDAPLPTEEEKKECDEELQDTMLLLSQMGPDAHMRMILRKPPGQRTVDDLEIIYEELLHIKALSHLSTTVKRELAGVLIFESHAKGGTVLFNQGEEGTSWYIILKGSVNVVIYGKGVVCTLHEGDDFGKLALVNDAPRAASIVLREDNCHFLRVDKEDFNRILRLENVYIKADKQKNGIKANFKIRHNIEDGGVQLAYHYQQNTPIGDGPVLLPDNHYLSVQSILSKDPNEKRDHMVLLEFVTAAGITLGMDELYKGGTGGSMVSKGEELFTGVVPIQVELDGDVNGHKFSVSGEGEGDATYGKLTLKFICTTGKLPVPWPTLVTTLTYGVQCFSRYPDHMKQHDFFKSAMPEGYIQERTIFFKDDGNYKTRAEVKFEGDTLVNRIELKGIDFKEDGNILGHKLEYNTRNRILRDVEANTVRLKEHDQDVLVLEKVPAGNRASNQGNSQPQQKYTVMSGTPEKILEHFLETIRLEATLNEATDSVLNDFIMMHCVFMPNTQLCPALVAHYHAQPSQGTEQEKMDYALNNKRRVIRLVLQWAAMYGDLLQEDDVSMAFLEEFYVSVSDDARMIAALKEQLPELEKIVKQISEDAKAPQKKHKVLLQQFNTGDERAQKRQPIRGSDEVLFKVYCMDPTYTTIRVPVATSVKEVISAVADKLGSGEGLIIVKMSSGGEKVVLKPNDVSVFMTLTINGRLFACPREQFDSLTPLPEQEGPTVGTVGTFELMSSKDLAYQMTIYDWELFNCVHELELIYHTFGRHNFKKTTANLDLFLRRFNEIQFWVVTEICLCSQLSKRVQLLKKFIKIAAHCKEYKNLNSFFAIVMGLSNVAVSRLALTWEKLPSKFKKFYAEFESLMDPSRNHRAYRLTVAKLEPPLIPFMPLLIKDMTFTHEGNKTFIDNLVNFEKMRMIANTARTVRYYRSQPFNPDAAQANKNHQDVRSYVRQLNVIDNQRTLSQMSHRLEPRR
For the molecule B1, the “Relative Change in Fluorescence” value is listed as −33%.
